In publication PMC4336329 (PLoS ONE, 2015):
In all, about 310,000 compounds went through this assay and about 2,200 (0.71%) showed an effect of 50% or more. The effect is printed as a negative number. The list shows a part of the results.

target: human ether-à-go-go-related gene (hERG) potassium channel (human, UniProt Q12809); assay: primary screen, population patch clamp on CHO cells stably expressing hERG
Sequence (Q12809 whole entry, looked up): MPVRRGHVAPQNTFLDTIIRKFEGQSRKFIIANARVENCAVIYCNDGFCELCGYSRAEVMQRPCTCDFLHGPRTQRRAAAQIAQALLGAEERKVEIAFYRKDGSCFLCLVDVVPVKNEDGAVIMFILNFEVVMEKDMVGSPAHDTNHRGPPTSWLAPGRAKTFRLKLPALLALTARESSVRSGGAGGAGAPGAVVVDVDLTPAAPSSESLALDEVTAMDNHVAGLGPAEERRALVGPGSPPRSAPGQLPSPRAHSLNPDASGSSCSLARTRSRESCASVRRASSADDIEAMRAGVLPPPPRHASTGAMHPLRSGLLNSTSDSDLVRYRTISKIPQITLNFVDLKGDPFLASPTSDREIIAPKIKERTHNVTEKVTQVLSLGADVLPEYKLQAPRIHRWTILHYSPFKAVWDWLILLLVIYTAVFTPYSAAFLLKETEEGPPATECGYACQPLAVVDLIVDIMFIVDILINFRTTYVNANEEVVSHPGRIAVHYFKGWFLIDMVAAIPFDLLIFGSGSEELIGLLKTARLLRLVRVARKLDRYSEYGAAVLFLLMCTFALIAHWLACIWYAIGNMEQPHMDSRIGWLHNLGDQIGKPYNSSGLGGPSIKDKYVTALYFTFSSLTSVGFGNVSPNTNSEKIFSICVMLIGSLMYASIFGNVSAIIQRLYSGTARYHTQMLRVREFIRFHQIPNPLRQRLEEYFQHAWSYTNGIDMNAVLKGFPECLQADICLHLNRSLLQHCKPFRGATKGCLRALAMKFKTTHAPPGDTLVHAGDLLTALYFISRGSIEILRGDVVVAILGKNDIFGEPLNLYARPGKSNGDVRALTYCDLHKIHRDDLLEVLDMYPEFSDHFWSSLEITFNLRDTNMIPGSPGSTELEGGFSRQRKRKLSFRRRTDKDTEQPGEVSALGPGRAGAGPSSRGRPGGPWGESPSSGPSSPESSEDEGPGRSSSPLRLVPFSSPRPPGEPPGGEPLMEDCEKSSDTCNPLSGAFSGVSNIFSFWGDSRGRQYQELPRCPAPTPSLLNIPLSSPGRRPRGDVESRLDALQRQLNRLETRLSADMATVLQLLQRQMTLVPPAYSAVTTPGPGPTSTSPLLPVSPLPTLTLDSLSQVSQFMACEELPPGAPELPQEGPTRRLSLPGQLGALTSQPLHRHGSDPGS

Structure (SMILES) | hERG current change (%, negative = inhibition) at 1uM [%]
CC(=O)NCC1CCCN(c2nc3nonc3nc2N(C)Cc2ccccc2)C1 (stereo not drawn) | 1.67
CCOC(=O)C1=C(C)Nc2sc(C(=O)c3ccc(Br)cc3)c(N)c2C1c1ccc(C(=O)OC)cc1 (stereo not drawn) | 19.7
CCn1cc(C(=O)O)c(=O)c2cnc(N3CCN(C(=S)NC(=O)c4ccc(OC)cc4)CC3)nc21 | 8.66
CCOc1ccccc1C(=O)Oc1ccc2ccc(=O)oc2c1 | 13.7
COc1ccc(-c2csc(NC(=O)C3CSC4(C)CCC(=O)N34)n2)cc1OC (stereo not drawn) | 13.3
CCOc1ccc(NC(=O)CN(C)Cc2ccc3c(c2)OCO3)cc1S(=O)(=O)N1CCCC1 | -8.73
CCOC(=O)C(C)Sc1nnc(Cc2cc(=O)[nH]c(=O)[nH]2)n1-c1ccc(Cl)cc1 (stereo not drawn) | 6.6
CC1=C(O)C(=O)OC1c1c(Cl)cccc1Cl (stereo not drawn) | 9.87
CCCN(CCO)Cc1cccc(Cl)c1 | 1.92
CCCn1c2c(c(O)c(C(=O)NCCCN(CC)CC)c1=O)CCCC2.Cl | -8.64
Cn1nc(CC(=O)NC2CCCCC2)c2ccccc2c1=O | 0.85
O=C(Nc1ccccc1C(F)(F)F)c1ccccc1Br | 2.19
O=C(NCc1cccc(Cl)c1)c1cccc(OC2CCN(C(=O)C3CC3)CC2)c1 | 6.93
Cc1ccc2nc(N3C(=O)C(O)=C(C(=O)c4ccc(C)o4)C3c3ccco3)sc2c1 (stereo not drawn) | 9.05
N#C/C(=C1\CCCN1)c1ccc2ccccc2n1 | 8.93
COc1cccc(C(=O)Nc2nnc(-c3ccc(OC)cc3OC)s2)c1 | 10.8
Cc1ccc(-c2nc(CS(=O)CC(=O)NCc3ccccc3)c(C)o2)cc1 (stereo not drawn) | -4.18
Cc1ccc(S(=O)(=O)NCCN=C(CN2CCOCC2)NS(=O)(=O)c2ccc(C)cc2)cc1 | 6.4
COCCCNC(=O)CN1C(=O)/C(=C/c2ccccc2)Sc2ccccc21 | 1.6
O=C(NCc1ccccc1F)C(c1ccccc1)c1ccccc1 | 10
Nn1c(-c2ccccc2)nc2cc(Cl)ccc2c1=O | 3.08
CC(C)=CC(=O)Nc1nnc(-c2cccnc2)s1 | 19.9
CC1(C)CC(=O)C(C=NCCN2CCN(CCCCS(=O)(=O)O)CC2)=C(O)C1 | 11.3

Structure (SMILES) | hERG current change (%, negative = inhibition) at 1uM [%]
O=C(Cc1ncc(C(F)(F)F)cc1Cl)Nc1cccc(Br)c1 | 1.88
Cc1ccc(S(=O)(=O)N2CCC(=O)N(CCOC(=O)NCc3ccccc3)CC2)cc1 | -7.2
c1cnc(N2CCN(c3nc4ccccc4n4cnnc34)CC2)nc1 | -7.08
O=c1c(C(c2ccc(O)cc2)c2c(O)nc3n(c2=O)CCS3)c(O)nc2n1CCS2 | 0.171
CCn1c(SCC(=O)Nc2nccc(C)n2)nc2ccccc21 | 8.34
CCCn1cnnc1CNC(=O)C1CCC(=O)N(CCc2cccc(F)c2)C1 (stereo not drawn) | 21.5
Cc1ccc(NC(=O)c2cccnc2)cc1C | 15.5
COc1ccc(S(=O)(=O)NCC2CCCN(C(=O)c3occc3C)C2)cc1 (stereo not drawn) | 20.4
O=C1CC(c2ccccc2)CC(O)=C1C=NCCN1CCOCC1 (stereo not drawn) | 8.09
COc1cccc(CNC(=O)c2nnn(CC(=O)Nc3ccc(C)c(C)c3)c2N)c1 | 2.54
O=C(CSc1ncn[nH]1)Nc1ccccc1C(=O)O | 0.493
COc1ccc(-c2nn(-c3ccccc3)cc2/C=N/Nc2ccccn2)cc1OC | 15.6
O=C1OC(C(=O)Nc2ccccc2)Cc2ccccc21 (stereo not drawn) | 13.2
Cc1cccc(N2CCN(C(=O)c3csc4ccccc34)CC2C)c1 (stereo not drawn) | 13.2
COc1ccc(/C=N/NC(=O)Cc2cccs2)cc1 | 10.8
Cc1c(C(=O)O)cccc1-n1c(C)cc(/C=C2\C(=O)NC(=O)N(c3ccc4c(c3)OCO4)C2=O)c1C | 13.9
COC(=O)CCc1c(COC(C)=O)[nH]c(C(=O)OCc2ccccc2)c1C | 16.2
COc1ccc(N2CC(C(=O)N[C@@H](C)C(=O)NC(C)c3ccccc3)CC2=O)cc1 (stereo partly drawn) | 2.84
Cc1nc(NCc2ccccn2)c2c3c(sc2n1)CCCC3 | -3.35
Cc1noc(C)c1COc1ccc(CC(=O)NCCc2ccccc2)cc1 | 9.17
Cc1nnc(C)c2c(C)n(C(c3ccccc3)c3ccccc3)c(C)c12 | -65.7
COC(=O)c1ccccc1NC(=O)CSc1n[nH]c(-c2ccncc2)n1 | 10.3
